To fix the notation:
B1: GGCACCA (DNA:RNA)
RNA: GGGAGACCGGAAUUCAGAUUGUCCGGCACCAUUAAAUCCCGUCGUAGCCACCA
DNA 1: CAATCTGAATTCCGGTCTCCC
DNA 2: TGGTGGCTACGACGGGATT
B2: GUGUCAA (DNA:RNA)
RNA: B1 RNA with G26U, C27G, A28U, C30A
DNA 1: CAATCTGAATTCCGGTCTCCC
DNA 2: TGGTGGCTACGACGGGATT
B3: CAGCAUA (DNA:RNA)
RNA: B1 RNA with G25C, G26A, C27G, A28C, C29A, C30U
DNA 1: CAATCTGAATTCCGGTCTCCC
DNA 2: TGGTGGCTACGACGGGATT
B4: GAGGUCG (DNA:RNA)
RNA: B1 RNA with G26A, C27G, A28G, C29U, A31G
DNA 1: CAATCTGAATTCCGGTCTCCC
DNA 2: TGGTGGCTACGACGGGATT
B5: UCUAUCA (DNA:RNA)
RNA: B1 RNA with G25U, G26C, C27U, C29U
DNA 1: CAATCTGAATTCCGGTCTCCC
DNA 2: TGGTGGCTACGACGGGATT
B6: UCGCGUU (DNA:RNA)
RNA: GGGAGACCGGAAUUCAGAUUGUCCUCGCGUUUUAAAUCCCGUCGUAGCCACCA
DNA 1: CAATCTGAATTCCGGTCTCCC
DNA 2: TGGTGGCTACGACGGGATT
B7: CUUUGAU (DNA:RNA)
RNA: B6 RNA with U25C, C26U, G27U, C28U, U30A
DNA 1: CAATCTGAATTCCGGTCTCCC
DNA 2: TGGTGGCTACGACGGGATT
B8: CUGUGUG (DNA:RNA)
RNA: B6 RNA with U25C, C26U, C28U, U31G
DNA 1: CAATCTGAATTCCGGTCTCCC
DNA 2: TGGTGGCTACGACGGGATT
B9: UCCUUCA (DNA:RNA)
RNA: B1 RNA with G25U, G26C, A28U, C29U
DNA 1: CAATCTGAATTCCGGTCTCCC
DNA 2: TGGTGGCTACGACGGGATT
B10: UCAAUUC (DNA:RNA)
RNA: B6 RNA with G27A, C28A, G29U, U31C
DNA 1: CAATCTGAATTCCGGTCTCCC
DNA 2: TGGTGGCTACGACGGGATT
B11: CGCUCGA (DNA:RNA)
RNA: B1 RNA with G25C, A28U, C30G
DNA 1: CAATCTGAATTCCGGTCTCCC
DNA 2: TGGTGGCTACGACGGGATT
B12: CUCAGAA (DNA:RNA)
RNA: B1 RNA with G25C, G26U, C29G, C30A
DNA 1: CAATCTGAATTCCGGTCTCCC
DNA 2: TGGTGGCTACGACGGGATT
B13: AACGUAC (DNA:RNA)
RNA: B1 RNA with G25A, G26A, A28G, C29U, C30A, A31C
DNA 1: CAATCTGAATTCCGGTCTCCC
DNA 2: TGGTGGCTACGACGGGATT
B14: ACUUGAA (DNA:RNA)
RNA: B6 RNA with U25A, G27U, C28U, U30A, U31A
DNA 1: CAATCTGAATTCCGGTCTCCC
DNA 2: TGGTGGCTACGACGGGATT
B15: GCGAUUU (DNA:RNA)
RNA: B6 RNA with U25G, C28A, G29U
DNA 1: CAATCTGAATTCCGGTCTCCC
DNA 2: TGGTGGCTACGACGGGATT
B16: CUAAUAG (DNA:RNA)
RNA: B1 RNA with G25C, G26U, C27A, C29U, C30A, A31G
DNA 1: CAATCTGAATTCCGGTCTCCC
DNA 2: TGGTGGCTACGACGGGATT
B17: GCAGAAG (DNA:RNA)
RNA: B1 RNA with G26C, C27A, A28G, C29A, C30A, A31G
DNA 1: CAATCTGAATTCCGGTCTCCC
DNA 2: TGGTGGCTACGACGGGATT
B18: CAGUUUU (DNA:RNA)
RNA: B6 RNA with U25C, C26A, C28U, G29U
DNA 1: CAATCTGAATTCCGGTCTCCC
DNA 2: TGGTGGCTACGACGGGATT
B19: GGUUUAG (DNA:RNA)
RNA: B1 RNA with C27U, A28U, C29U, C30A, A31G
DNA 1: CAATCTGAATTCCGGTCTCCC
DNA 2: TGGTGGCTACGACGGGATT
B20: GGAUUCC (DNA:RNA)
RNA: B1 RNA with C27A, A28U, C29U, A31C
DNA 1: CAATCTGAATTCCGGTCTCCC
DNA 2: TGGTGGCTACGACGGGATT
B21: GUAGUCG (DNA:RNA)
RNA: B1 RNA with G26U, C27A, A28G, C29U, A31G
DNA 1: CAATCTGAATTCCGGTCTCCC
DNA 2: TGGTGGCTACGACGGGATT
B22: UCUUAUC (DNA:RNA)
RNA: B6 RNA with G27U, C28U, G29A, U31C
DNA 1: CAATCTGAATTCCGGTCTCCC
DNA 2: TGGTGGCTACGACGGGATT
B23: CCAACUG (DNA:RNA)
RNA: B1 RNA with G25C, G26C, C27A, C30U, A31G
DNA 1: CAATCTGAATTCCGGTCTCCC
DNA 2: TGGTGGCTACGACGGGATT
B24: UUACAAU (DNA:RNA)
RNA: B6 RNA with C26U, G27A, G29A, U30A
DNA 1: CAATCTGAATTCCGGTCTCCC
DNA 2: TGGTGGCTACGACGGGATT
B25: GGAAUCA (DNA:RNA)
RNA: B1 RNA with C27A, C29U
DNA 1: CAATCTGAATTCCGGTCTCCC
DNA 2: TGGTGGCTACGACGGGATT
B26: CUCGGCA (DNA:RNA)
RNA: B1 RNA with G25C, G26U, A28G, C29G
DNA 1: CAATCTGAATTCCGGTCTCCC
DNA 2: TGGTGGCTACGACGGGATT
B27: CUCGCUU (DNA:RNA)
RNA: B1 RNA with G25C, G26U, A28G, C30U, A31U
DNA 1: CAATCTGAATTCCGGTCTCCC
DNA 2: TGGTGGCTACGACGGGATT
B28: CGUUUAU (DNA:RNA)
RNA: B1 RNA with G25C, C27U, A28U, C29U, C30A, A31U
DNA 1: CAATCTGAATTCCGGTCTCCC
DNA 2: TGGTGGCTACGACGGGATT
B29: ACCAACU (DNA:RNA)
RNA: B1 RNA with G25A, G26C, C29A, A31U
DNA 1: CAATCTGAATTCCGGTCTCCC
DNA 2: TGGTGGCTACGACGGGATT
B30: GUCUUAC (DNA:RNA)
RNA: B1 RNA with G26U, A28U, C29U, C30A, A31C
DNA 1: CAATCTGAATTCCGGTCTCCC
DNA 2: TGGTGGCTACGACGGGATT
B31: UUCCGGC (DNA:RNA)
RNA: B6 RNA with C26U, G27C, U30G, U31C
DNA 1: CAATCTGAATTCCGGTCTCCC
DNA 2: TGGTGGCTACGACGGGATT

Positions count from the first letter of the chain named. The list shows a part of the results.

These results are taken from article PMC9911399, “Two distinct binding modes provide the RNA-binding protein RbFox with extraordinary sequence specificity”.

In this assay the target is T1, RBFOX1 RRM (Homo sapiens, UniProt Q9NWB1 109-208).
T1 sequence: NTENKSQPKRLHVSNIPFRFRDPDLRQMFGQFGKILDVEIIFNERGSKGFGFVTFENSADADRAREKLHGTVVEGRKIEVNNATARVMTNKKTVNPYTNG
As to the kind of experiment: EMSA; HiTS-Eq, 1 nM pool, 10 min; buffer printed only for the single-RNA assays: 10 mM Tris pH 7.5, 150 mM NaCl, 3.4 mM EDTA, 0.001% NP-40, 30 C. The conditions noted are these: tags: His6 N-terminal (pET28a); label: 5' 32P. The procedure, abridged:
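These values rest on relative association constants, computed from read-count changes of each RNA species versus the control reaction and normalised to the cognate motif. Reads came from free RNA recovered by 8% native PAGE after purified RbFox RRM (wild type or mutant) at increasing concentrations was equilibrated for 10 min in 50 µL with 1 nM of a 5′-radiolabelled pool with 7 randomized nucleotides and DNA-annealed flanks.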
Consider B1, for which the binding signal was 0.00552 KA relative to UGCAUGU.
In the case of B2, the binding signal was 0.00628 KA relative to UGCAUGU.
Consider B3, for which the binding signal is 0.00331 KA relative to UGCAUGU.
For the molecule B4, the binding signal was 0.0183 KA relative to UGCAUGU.
Turning to B5, the binding signal is 0.00253 KA relative to UGCAUGU.
In the case of B6, the binding signal is 0.018 KA relative to UGCAUGU.
Consider B7, for which the binding signal was 0.0135 KA relative to UGCAUGU.
As for B8, the binding signal is 0.027 KA relative to UGCAUGU.
With B9 the figure was 0.00389 KA relative to UGCAUGU; with B10, 0.00427 KA relative to UGCAUGU.
Turning to B11, the binding signal was 0.0174 KA relative to UGCAUGU.
Regarding B12, the binding signal was 0.00496 KA relative to UGCAUGU.
For the molecule B13, the binding signal is 0.00417 KA relative to UGCAUGU.
As to B14, the binding signal is 0.0101 KA relative to UGCAUGU.
As for B15, the figure is 0.0136 KA relative to UGCAUGU.
With B16, the binding signal is 0.00505 KA relative to UGCAUGU.
For the molecule B17, the binding signal was 0.0129 KA relative to UGCAUGU.
For the molecule B18, the binding signal was 0.006 KA relative to UGCAUGU.
As for B19, the figure is 0.0117 KA relative to UGCAUGU; as for B20, 0.00818 KA relative to UGCAUGU.
As for B21, the binding signal was 0.0126 KA relative to UGCAUGU.
In the case of B22, the binding signal is 0.00318 KA relative to UGCAUGU.
For B23, the binding signal was 0.00702 KA relative to UGCAUGU.
B24: the binding signal is 0.00107 KA relative to UGCAUGU.
On to B25, for which the binding signal is 0.0111 KA relative to UGCAUGU.
In the case of B26, the binding signal is 0.0189 KA relative to UGCAUGU.
In the case of B27, the binding signal was 0.00812 KA relative to UGCAUGU.
For the molecule B28, the binding signal was 0.00365 KA relative to UGCAUGU.
With B29 the figure was 0.000269 KA relative to UGCAUGU; with B30, 0.00926 KA relative to UGCAUGU; with B31, 0.00629 KA relative to UGCAUGU.
